In PubChem BioAssay AID504339 (National Center for Advancing Translational Sciences (NCATS), 2011):
In all, about 390,000 compounds went through this assay and about 17,000 (4.4%) were called active. Inconclusive results, whose numbers are uncertain, are shown with a selection of clear calls. Calls come from the whole dose curve; as a rule, active = well fitted inhibition curve with a large enough effect; inconclusive = small, poorly fitted or top-dose-only effect; inactive = no such curve, though single readings can be large or run the other way. Potencies of inconclusive entries are doubtful fits and often do not repeat.

biological target: Lysine-specific demethylase 4A (Homo sapiens) (UniProt O75164); assay: qHTS Assay for Inhibitors of JMJD2A-Tudor Domain; settings: AlphaScreen JMJD2A-Tudor / H3K4me3 peptide binding; activity change, negative = inhibition: at 114 µM (top of the series); note: nearly all actives have a fitted effect of over 50% in size
UniProt O75164, sequence (O75164 whole entry, looked up, the tested form may be a part): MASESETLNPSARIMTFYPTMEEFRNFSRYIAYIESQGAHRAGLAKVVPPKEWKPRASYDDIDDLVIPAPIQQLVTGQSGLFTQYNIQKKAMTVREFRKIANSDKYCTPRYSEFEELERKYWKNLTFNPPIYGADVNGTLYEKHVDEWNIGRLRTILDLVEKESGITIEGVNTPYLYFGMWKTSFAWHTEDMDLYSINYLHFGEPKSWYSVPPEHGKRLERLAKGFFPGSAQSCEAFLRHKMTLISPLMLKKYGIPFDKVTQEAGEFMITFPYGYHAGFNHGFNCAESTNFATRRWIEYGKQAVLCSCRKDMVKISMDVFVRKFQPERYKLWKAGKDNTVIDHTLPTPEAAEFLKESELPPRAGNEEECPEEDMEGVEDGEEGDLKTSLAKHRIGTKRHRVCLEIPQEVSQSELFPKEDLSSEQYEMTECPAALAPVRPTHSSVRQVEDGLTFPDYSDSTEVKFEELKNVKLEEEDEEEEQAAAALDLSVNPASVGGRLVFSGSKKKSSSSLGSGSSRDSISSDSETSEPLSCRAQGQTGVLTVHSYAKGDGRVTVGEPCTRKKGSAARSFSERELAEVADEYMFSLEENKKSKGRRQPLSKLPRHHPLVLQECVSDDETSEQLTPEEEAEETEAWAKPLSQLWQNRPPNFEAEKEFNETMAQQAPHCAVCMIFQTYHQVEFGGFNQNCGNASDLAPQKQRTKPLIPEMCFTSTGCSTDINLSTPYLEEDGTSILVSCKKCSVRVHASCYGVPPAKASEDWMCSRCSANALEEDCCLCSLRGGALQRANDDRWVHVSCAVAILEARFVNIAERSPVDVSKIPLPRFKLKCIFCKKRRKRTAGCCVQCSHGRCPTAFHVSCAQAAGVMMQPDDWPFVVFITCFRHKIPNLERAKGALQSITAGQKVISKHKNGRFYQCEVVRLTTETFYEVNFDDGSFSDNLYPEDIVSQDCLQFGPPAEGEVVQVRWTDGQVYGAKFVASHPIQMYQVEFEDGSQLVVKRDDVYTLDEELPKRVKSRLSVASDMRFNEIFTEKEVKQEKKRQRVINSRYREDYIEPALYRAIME
% is set by controls: 0 for no effect and ±100 for the full control effect; potency is the fitted concentration of half-maximal effect; tags give direction and shape of the fitted curve.

Potency, active:
Clc1ccccc1-c1ncc2ccccn12 17.8 µM
CCOC(=O)c1c(=O)n(O)c2ccc(OC)cc2[n+]1[O-] 50.1 µM
S=c1[nH]nc(-c2ccccc2)n1Cc1ccccc1 11.2 µM
Clc1ccc(CNc2ccc(N3CCN(Cc4ccccc4)CC3)cc2)cc1 11.2 µM
C#CCOCCOCCOCCNc1nc(N2CCN(C(=O)CCCCCCCCCCNC(=O)[C@@H](CCSC)n3cc(CCO)nn3)CC2)nc(N2CCN(C(=O)CCCCCCCCCCNC(=O)[C@H]([C@@H](C)CC)n3cc(CCCCCN)nn3)CC2)n1 56.2 µM
CCN(CC)c1ccc(N=Cc2c(C)[nH]c3ccccc23)cc1 35.5 µM
COc1cc2c(cc1OC)C[N+](C)(C)CC2 50.1 µM

Potency, inconclusive:
CC(C)(C)NC(=O)CSc1nc(O)cc(=O)n1-c1ccccc1 89.1 µM [inhibitor, single point]
Cc1nc(C)c(C(=O)C2=C(O)C(=O)N(CCN3CCOCC3)C2c2ccco2)s1 (stereo unspecified) 17.8 µM [inhibitor, full curve]
Cc1ccc(C)c(S(=O)(=O)Nc2ccc(C(=O)NCC(c3ccco3)N(C)C)cc2)c1 (stereo unspecified) 63.1 µM [inhibitor, partial curve, poor fit]
Cc1cc(=O)n2nc(-c3ccccc3)sc2c1C#N 20 µM [inhibitor, full curve]
Cc1c(NC(=O)/C(C#N)=C/c2ccc(-c3cc(Cl)ccc3Cl)o2)c(=O)n(-c2ccccc2)n1C 100 µM [inhibitor, single point]
CCOC(=O)CN1C(=O)S/C(=C/c2cc(C)n(C)c2C)C1=O 79.4 µM [inhibitor, partial curve]
CCCNC(=O)c1ccc(N2CCC3(CC2)CC(c2ccccc2)=NO3)c([N+](=O)[O-])c1 15.8 µM [inhibitor, full curve]
CCNc1ccc(C(=O)NN=C2CCCC2)cc1[N+](=O)[O-] 100 µM [inhibitor, single point]
CN(CC(=O)Nc1cccc(C(F)(F)F)c1)S(=O)(=O)c1ccc2[nH]c3c(c2c1)CCCC3 25.1 µM [inhibitor, full curve]
COc1ccc(Cl)cc1NC(=O)CSc1nccn1Cc1ccco1 50.1 µM [inhibitor, partial curve]
Cc1ccccc1NC1=NCC(c2ccc([N+](=O)[O-])cc2)S1 (stereo unspecified) 56.2 µM [inhibitor, partial curve]
CCn1c(=O)n(CC)c2cc(N3CCCC3)c(NC(=O)c3ccc(C)c([N+](=O)[O-])c3)cc21 63.1 µM [inhibitor, partial curve, poor fit]
Cc1ccc(CNC(=O)c2c3c(nc4ccccc24)C(=O)N(C2CCCCC2)C3)cc1 89.1 µM [inhibitor, partial curve]
CCc1nnc(NS(=O)(=O)c2ccc(N/C=C\C(=O)c3cccc4ccccc34)cc2)s1 79.4 µM [inhibitor, single point]
Cc1cccc(N2C(=O)CN=C2Nc2nc(C)cc(C)n2)c1 89.1 µM [inhibitor, single point]
CCN(CC)CCN(C(=O)c1ccc(S(=O)(=O)N(CC)c2ccccc2)cc1)c1nc2c(OC)ccc(OC)c2s1 22.4 µM [inhibitor, full curve]
COc1ccccc1S(=O)(=O)Cc1ccc(C(=O)N2CCN(c3ccccn3)CC2)o1 50.1 µM [inhibitor, partial curve]
CC(C)N1C(=O)/C(=C\c2nc3ccccc3c(=O)[nH]2)c2ccccc21 28.2 µM [inhibitor, single point]
CC(C)Oc1cccc(C(=O)NC(=S)Nc2ccc3c4c(cccc24)CC3)c1 56.2 µM [inhibitor, partial curve]
COc1ccc(Nc2nc(N3CCCC3)nc(N3CCOCC3)n2)cc1 63.1 µM [inhibitor, partial curve, poor fit]
O=C(C1=C[C@@H](c2coc3ccccc3c2=O)C[C@@H](OCc2ccc(CO)cc2)O1)N1CCN(Cc2ccc3c(c2)OCO3)CC1 50.1 µM [inhibitor, partial curve]
CNC(=S)N/N=C/c1cn(Cc2ccc(C)cc2)c2ccccc12 39.8 µM [inhibitor, partial curve]
Cc1c(C)n(CCCN(C)C)c2ncnc(NCc3ccccc3)c12 56.2 µM [inhibitor, single point]

Activity change, negative = inhibition, inactive:
COc1cc(C(=O)Nc2ccc3nc(SCc4ccccc4)sc3c2)cc(OC)c1OC -20.5%
Cc1ccc(NC(=O)[C@H](CC(C)C)NC(=O)[C@@H]2Cc3ccccc3CN2)cc1 -24.3%
COC(=O)C(NC(C)=O)(Nc1nc2ccc(C)cc2s1)C(F)(F)F (stereo unspecified) 6.19%
Cc1cc(SCC(=O)N2CCCC2=O)nc2c(C)cccc12 -3.45%
CC1(C)CC(=O)C2=C(C1)Nc1ccccc1NC2 -3.09%
Cn1c(=O)c2ncn(CC(=O)NCCOc3ccc(C(C)(C)C)cc3)c2n(C)c1=O -2.07%
Cc1ccc(-n2ncc(C(=O)NCCN3CCc4ccccc4C3)c2C2CCN(C(=O)OC(C)(C)C)CC2)cc1 -33%
O=c1ccc(Cl)n[nH]1 1.37%
COC(=O)C1=C(C)Nc2c(c(=O)n(C)c(=O)n2C)C1c1cccc(O)c1 (stereo unspecified) -15.8%
O=C(CSc1ccccn1)Nc1ccc(Cl)cn1 -16.8%
O=C(CNc1n[nH]c(=O)[nH]c1=O)N/N=C/C1CC=CCC1 (stereo unspecified) -14%
COc1cn(-c2ccccc2)nc1C(=O)Nc1ccc(C)cc1 -15.5%
O=C(Nc1ccc(C(=O)N2CCCCC2)cc1)c1ccc(Br)cc1 -20.3%
CCCCc1nnc(NC(=O)c2nc3nccc(C)n3n2)s1 -5.76%
Cc1cc(C)n2c(SCC(O)=C(C#N)c3nc4ccccc4[nH]3)nnc2n1 -24.8%
CCN(C(=O)c1oc2ccc(S(=O)(=O)N3CCCCCC3)cc2c1C)c1ccccc1 -15.6%
